The whole screen tested about 310,000 compounds, of which about 18,000 (5.8%) were called active. Inconclusive means that the source gave no clear call. Such entries were picked first, then a sample of the others. Calls follow the shape of the dose curve; as a rule, active = well fitted inhibition curve with a large enough effect; inconclusive = small, poorly fitted or top-dose-only effect, or another doubt; inactive = no such curve, though single readings can be large or run the other way. No potency is given beside an inconclusive call; the fits are too rough.
Assay: Primary qHTS for delayed death inhibitors of the malarial parasite plastid, 48 hour incubation
Details: P. falciparum luciferase growth in erythrocytes; series mostly up to 28.7 µM; activity change, negative = inhibition: at the top concentration
Outline: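 Luciferase-expressing P. falciparum in infected erythrocytes (2% hematocrit, 0.1% parasitemia final) in RPMI 1640/0.5% Albumax were exposed to compound for 48 hours at 37 C, 5% CO2; growth read as luminescence.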
% is scaled to controls: 0 for no effect and ±100 for the full control effect; potency is read from the fitted curve at half-maximal effect; tags tell the direction and shape of the fitted curve.

SMILES	activity change, negative = inhibition	Potency
CCOC(=O)C1CCN(C(=O)COc2ccc(S(=O)(=O)NC(C)(C)C)cc2)CC1	inactive: -26.2%	–
Cc1ccc(S(=O)(=O)NC(=O)NC(=O)N(C)S(=O)(=O)c2ccc(C)cc2)cc1	inactive: 22.5%	–
CCC(=O)N(CCc1ccccc1C)Cc1cc2ccc(C)cc2[nH]c1=O	inactive: -8.72%	–
CCCC(=O)Nc1ccc(C(=O)/C=C/c2ccc(SC)cc2)cc1	–	inconclusive [inhibitor, single point]
CCCc1cc(=O)[nH]c(SCC(=O)NC2(C#N)CCCCC2)n1	inactive: -23.1%	–
Cc1cccn2c(=O)c3cc(S(=O)(=O)c4ccccc4)c(=N)n(Cc4ccco4)c3nc12	–	inconclusive [inhibitor, single point]
CCOc1ccc(CSC2=NCCN2)cc1Cl	–	inconclusive [inhibitor, single point]
Cc1cccc(Oc2ccc(S(=O)(=O)N3CCCCC3)cc2N)c1	–	inconclusive [inhibitor, full curve, poor fit]
O=C(CN1C(=O)COc2ccccc21)NNC(=O)Nc1ccccc1F	inactive: 43.8%	–
C/C(CC(=O)NCc1ccco1)=N\NC(=O)C(c1ccccc1)c1ccccc1	inactive: 1.39%	–
CCOC(=O)c1sc2nc(CC(=O)OC)nc(N3CCN(c4ccccn4)CC3)c2c1C	–	inconclusive [inhibitor, partial curve, poor fit]
Cc1ccc2cc(C(c3nnnn3C3CCCC3)N(Cc3cccnc3)Cc3ccco3)c(=O)[nH]c2c1 (configuration not stated)	–	active: 13.1 µM
COCCCNS(=O)(=O)c1ccc2c(c1)OCCO2	inactive: 24.2%	–
O=C(c1cc(COc2ccc(F)cc2Cl)on1)N1CCc2ccccc2C1	inactive: 6.46%	–
COc1ccc(-c2nnc(-c3ccc(F)cc3)o2)cc1	inactive: 236%	–
CCOC(=O)c1cnc(-n2nc(C)cc2C)nc1Nc1ccccc1OC	–	inconclusive [inhibitor, full curve, poor fit]
COc1ccccc1NC(=O)C1=C(C)Nc2ncnn2C1c1cccs1 (configuration not stated)	–	inconclusive [inhibitor, single point]
CCN(C(=O)COc1cc(=O)n(C)c2ccccc12)c1cccc(Cl)c1	–	inconclusive [inhibitor, partial curve]
O=C(c1ccncc1)N1CCN(S(=O)(=O)c2cc(C(F)(F)F)cc(C(F)(F)F)c2)CC1	–	active: 11.7 µM
C=C(C)CNC(=S)N/N=C/C1=CCC2CC1C2(C)C (configuration not stated)	–	inconclusive [inhibitor, full curve, poor fit]
O=C(Cc1csc(NC(=O)c2ccc(F)cc2)n1)NO	–	inconclusive [inhibitor, partial curve, poor fit]
O=C(COc1ccccc1Cl)Nc1cc(Cl)ccc1Oc1ccccc1	inactive: 37.2%	–
CCc1ccc(-c2cn(-c3nc(C)cc(C)n3)c(=N)o2)cc1	–	inconclusive [inhibitor, partial curve]
Cc1cc(N2CCN(c3ccc(C(F)(F)F)cc3[N+](=O)[O-])CC2)c2ccccc2n1	–	active: 13.1 µM

SMILES	activity change, negative = inhibition	Potency
S=C1NCN(Cc2cccnc2)CN1Cc1ccccc1	inactive: 15.1%	–
COc1ccccc1C(CNC(=O)c1ccc(S(=O)(=O)N2CCCCC2)cc1)N(C)C (configuration not stated)	–	inconclusive [inhibitor, single point]
Clc1ccc(CSc2nnc(-c3ccccn3)n2Cc2ccco2)c(Cl)c1	–	inconclusive [inhibitor, single point]
CN1C(=O)C(C)(C)c2cc(S(=O)(=O)N3CCC(C(=O)NCc4ccccc4Cl)CC3)ccc21	–	inconclusive [inhibitor, single point]
COc1ccc(OCC(=O)NC2CC(C)(C)NC(C)(C)C2)cc1	inactive: 46.3%	–
CCOC(=O)c1c[nH]n(-c2ccc(C)cc2)c1=O	inactive: -3.4% [at 5.75 µM]	–
Cn1cccc1C(C#N)c1cccc(F)c1C#N (configuration not stated)	–	inconclusive [inhibitor, single point]
COc1ccc2c(c1)c(C(=O)O)c(C)n2CCc1ccc(OC)c(OC)c1	–	inconclusive [inhibitor, partial curve, poor fit]
Cc1c(O[C@@H]2O[C@H](CO)[C@@H](O)[C@H](O)[C@H]2O)ccc2c1oc(=O)c1ccccc12	inactive: -11.3% [at 0.00184 µM]	–
O=C1NC(CCc2ccccc2)C(=O)N1Cc1ccc(Br)cc1 (configuration not stated)	–	inconclusive [inhibitor, full curve]
COc1ccc2oc(C(=O)Nc3nc4ccccc4[nH]3)c(C)c2c1	inactive: 20.8%	–
CCOC(=O)c1cnc(SC)nc1Nc1cccc(F)c1	inactive: 13.2%	–
COc1ccc(F)cc1C(=O)C1CCCN(C(=O)CSc2ccccn2)C1 (configuration not stated)	–	inconclusive [inhibitor, partial curve, poor fit]
CC(=O)c1cn(N2CCCCC2)c(=O)[nH]c1=O	inactive: 18.5%	–
O=C1NC(=O)N(c2ccc3c(c2)OCO3)C(=O)/C1=C/c1ccc(N2CCCC2)o1	–	inconclusive [inhibitor, full curve, poor fit]
Clc1cc(Br)ccc1OCCn1ccnc1	–	inconclusive [inhibitor, partial curve]
O=c1[nH]c2ccc(Cl)cc2c(O)c1-c1ccccc1	inactive: 36.6%	–
Cc1cc(=O)[nH]c(-n2nc(C)c(Oc3ccccc3O)c2C)n1	–	inconclusive [inhibitor, single point]
COc1ccccc1OC(C)C(=O)Nc1nc(-c2ccc(S(=O)(=O)N3CCOCC3)cc2)cs1 (configuration not stated)	–	inconclusive [inhibitor, single point]
Cc1cccc(NC(=O)CCC(=O)c2cccs2)n1	inactive: 39.4%	–
CCOc1ccccc1O[C@H](c1ccccc1)[C@H]1CNCCO1	–	inconclusive [inhibitor, single point]
O=C(Cc1ccccc1)NCC(=O)N/N=C/c1ccc([N+](=O)[O-])s1	–	inconclusive [inhibitor, single point]
CCOC(=O)c1ccc(NC(c2ccc(N(C)C)cc2)P(=O)(OC(C)C)OC(C)C)cc1 (configuration not stated)	–	active: 13.1 µM
